Experimental data reported in PubChem BioAssay AID360 (National Center for Advancing Translational Sciences (NCATS), 2006).
The campaign covered roughly 48,000 compounds. About 550 (1.1%) were called active. Not shown: some 4% with an inconclusive outcome. No stated cut-off is given here; in the data, active means potency below about 15 µM; inconclusive means mostly about 16 µM to 33 µM; inactive means weaker than that. Some of the results follow.

Molecular target: Lysosomal acid glucosylceramidase (Homo sapiens) (UniProt P04062)
UniProt P04062, sequence (P04062 whole entry, looked up): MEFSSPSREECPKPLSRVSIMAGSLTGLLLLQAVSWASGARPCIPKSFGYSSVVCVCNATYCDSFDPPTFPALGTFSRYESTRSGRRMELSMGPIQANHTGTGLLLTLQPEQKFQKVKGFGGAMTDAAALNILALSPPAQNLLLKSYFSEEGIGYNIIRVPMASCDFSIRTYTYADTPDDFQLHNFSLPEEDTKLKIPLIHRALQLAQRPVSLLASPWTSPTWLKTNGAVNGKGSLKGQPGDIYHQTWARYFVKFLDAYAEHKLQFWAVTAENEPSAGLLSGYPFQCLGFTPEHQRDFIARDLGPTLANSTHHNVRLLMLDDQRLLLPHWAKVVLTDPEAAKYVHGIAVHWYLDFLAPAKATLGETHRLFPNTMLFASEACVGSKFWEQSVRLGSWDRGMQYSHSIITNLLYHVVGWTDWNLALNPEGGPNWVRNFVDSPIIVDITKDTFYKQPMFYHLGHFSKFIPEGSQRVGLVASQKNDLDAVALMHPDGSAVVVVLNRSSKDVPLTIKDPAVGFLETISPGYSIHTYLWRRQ
Test: Glucocerebrosidase;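 further: the screen sought inhibitors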
Settings: purified enzyme, resorufin glucoside fluorescence (screen aimed at inhibitors), 20 min
How it was run: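 Compounds titrated against 0.2 nM normal enzyme, 30 uM resorufin beta-D-glucopyranoside substrate, citrate/phosphate buffer with taurocholate and tween-20, pH 5.9. Reaction ran 20 min at room temperature; fluorescence (Ex 548/Em 600) gave AC50.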
Potency means the concentration at half of the fitted maximal effect.

Potency, inactive:
Cc1cccc(C)c1-n1nnnc1SCSc1nnnn1-c1c(C)cccc1C > 76.9 µM, Cn1c(=O)n(Cc2ccccc2F)c2ccccc21 > 76.9 µM, COc1ccc(CNC(=O)C2CCN(c3nccs3)CC2)cc1 > 76.9 µM, COc1ccc(S(=O)(=O)NC(CC(=O)NCc2ccco2)c2ccco2)cc1 (centres undefined) > 76.9 µM, COCCNC(=O)c1ccccc1NC(=O)CN(c1ccc2c(c1)OCO2)S(C)(=O)=O > 76.9 µM, Cc1c(CNC(=O)c2nn3c(c2Cl)NC(c2ccccc2)CC3C(F)(F)F)cnn1C (centres undefined) > 76.9 µM, Cc1cc(C(=O)OCC(=O)c2ccc(Br)s2)c(C)o1 > 76.9 µM, O=C(COc1ccccc1)N(Cc1cc2ccccc2[nH]c1=O)CC1CCCO1 (centres undefined) > 76.9 µM, Cc1cc(C)c2c(n1)nn1c(N3CCN(c4cccc(Cl)c4)CC3)cc(C)nc21 > 76.9 µM, O=C1c2ccccc2C(=O)N1CC(O)COCc1ccccc1 (centres undefined) > 76.9 µM, Cc1ccc2nc(NC(=O)c3cccs3)sc2c1 > 76.9 µM, O=C(NCCCN1CCOCC1)c1ccc(Br)s1 > 76.9 µM, Clc1cccc(-c2nnc(SCc3nc4ccccc4[nH]3)n2Cc2ccco2)c1 > 76.9 µM, CCOC(=O)c1c(N)sc2c1C1CCN2CC1 > 76.9 µM, COCCN1C(=O)C(=O)/C(=C(/O)c2ccc(OCC(C)C)cc2)C1c1cccnc1 (centres undefined) > 76.9 µM, COC(=O)c1cc(OC)c(OC)cc1NC(=O)c1cc(C)on1 > 76.9 µM, O=S(=O)(NC1CCCC1)c1ccc(S(=O)(=O)N2CCc3ccccc32)cc1 > 76.9 µM, O=C(NC(NC1CCS(=O)(=O)C1)C(=O)c1cccs1)c1ccccc1 (centres undefined) > 76.9 µM, COc1ccc(S(=O)(=O)N(CC(=O)N2CCN(C)CC2)c2ccccc2)cc1OC > 76.9 µM, Cc1ccc(SCc2nc(-c3ccccn3)no2)cc1 > 76.9 µM, COc1ccc(C2/C(=C(\O)c3ccc4c(c3)OCCO4)C(=O)C(=O)N2CCCN(C)C)c(OC)c1 (centres undefined) > 76.9 µM, CCCS(=O)(=O)N1CCCC(C(=O)N2CCN(C(=O)OCC)CC2)C1 (centres undefined) > 76.9 µM, CC(=O)Nc1ccc(NC(=O)Cn2c(CC(=O)N3CCCC3)nc3ccccc32)cc1 > 76.9 µM, COc1c(C)cccc1C(=O)Nc1ccc(CN2CCOCC2)cc1 > 76.9 µM
